Hit rate of the full screen: of about 48,000 compounds, about 450 (0.94%) were called active. About 19% were inconclusive and are not listed. Calls come from the whole dose curve; as a rule, active = well fitted inhibition curve with a large enough effect; inconclusive = small, poorly fitted or top-dose-only effect; inactive = no such curve, though single readings can be large or run the other way. The list shows a part of the results.
Assay: Primary qHTS for Identification of Small Molecule Inhibitors of Huntingtin Promoter Activity; note: nearly all actives have a fitted effect of over 50% in size
Details: HEK293 HTT promoter firefly luciferase reporter (activity 0% = vehicle and -100% = no light), 24 h; series mostly up to 57.5 µM; activity change, negative = inhibition: at the top concentration
In short: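 HEK293 luciferase promoter-reporter cells (2,500/well) plated 24 h, then compounds added at up to 57.5 uM final for 24 h at 37 °C. Firefly luminescence by Dual-Glo, normalized to vehicle (0%) and zero RLU (-100%).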

Activity change, negative = inhibition, inactive:
Cc1ccc(C)c(N2CCN(C(=O)CCn3c(=O)c4cccn4c4cccnc43)CC2)c1 -1.99%
COc1ccccc1Nc1nc(-c2ccccc2Cl)c2cc(Br)ccc2n1 -13.7%
CC1=C(C(=O)Nc2ccc(Cl)cc2)C(C(C)C)n2nc(SCc3ccc(Cl)cc3)nc2N1 (stereo not given) -9.45%
O=C(NCC1CCN(Cc2cccc(Cl)c2)CC1)c1cc2ccc3cccnc3c2[nH]1 -4.5%
COc1ccc(OC)c(CCNC(=O)C2=C(C)C(=O)OC23CCC(C)CC3)c1 (stereo not given) -26.3%
Cc1cc(C)c2c(CC(=O)Nc3ccc(S(=O)(=O)Nc4ncccn4)cc3)coc2c1 18%
CCc1cccc(C)c1NC(=O)Cn1ccn(Cc2ccc(Cl)cc2)c(=O)c1=O -29.4%
COc1ccc(NC(=O)CN(C)S(=O)(=O)c2cnc[nH]2)cc1Cl 2.86%
Cc1cc(CCCOc2c(C)cc(-c3noc(C(F)(F)F)n3)cc2C)on1 4.28%
Cc1ccc(-c2[nH]c(-c3ccccc3)nc2SCC(=O)NCC2CCCO2)cc1 (stereo not given) -26%
COc1ccc(-c2noc(COc3ccc(Br)cc3C)n2)cc1OC -30.5%
CCc1ccc(OCC(=O)Nc2ccc(-c3nc4ncccc4o3)cc2)cc1 32.8%
CCC(O)c1cc2c(cc1NC(=O)c1ccccc1F)OCCO2 (stereo not given) -3.59%
Cc1ccc(OCC(=O)Nc2cccc(C(=O)OCc3cc(=O)n4nc(C)sc4n3)c2)cc1 20.4%
OCCOCCN1CCN(C(c2ccccc2)c2ccc(Cl)cc2)CC1 (stereo not given) -9.62%
O=C(O)c1ccc(NC(=O)c2cn(-c3ccccc3)nc2-c2ccc(Br)cc2)cc1 -10.1%
COc1cccc(CNC(=O)C(=O)Nc2ccc3nc4n(c(=O)c3c2)CCCCC4)c1 2.2%
Cc1ccc(N2CCN(C(=O)c3cc(S(=O)(=O)N4CCCCC4)c[nH]3)CC2)c(C)c1 16.2%
Cc1ccc(-c2cc(C(=O)Oc3ccccc3Cl)no2)cc1C 4.34%
Cc1ccc2nc(Cl)c3cc(C(=O)NC4CCC(C)CC4)sc3c2c1 (stereo not given) 6.65%
Cc1cccc(OCC(=O)N(Cc2ccccc2)c2ccccn2)c1 -10.7%
COc1ccc(CCNC(=O)c2ccc3c(Cl)c4c(nc3c2)CCCC4)c(OC)c1 -25.5%
COC(=O)c1cnc(N2CCN(c3ccc(F)cc3)CC2)c2ccccc12 -14.7%
CC1CCC(NC(=O)c2ccc(CS(=O)(=O)c3c(Cl)cccc3Cl)o2)CC1 (stereo not given) -28.7%
COc1ccc(OCC(=O)Nc2ccccc2C(=O)OCc2cc(=O)n3nc(C)sc3n2)cc1 -8.82%
O=C(NCCN1CCCCC1)c1ccc(Cn2c(SCc3cccc(F)c3)nc3cccnc32)cc1 -8.35%
COC(=O)c1ccc(CSc2nc3c(c(=O)[nH]2)CCC3)cc1 -7.06%
CCc1ccccc1NC(=O)Cn1c(=O)n(Cc2ccco2)c(=O)c2sc3ccccc3c21 -13.2%
Cc1ccc(NC(=O)Cn2c(=O)n(Cc3ccc4c(c3)OCO4)c(=O)c3ccccc32)c(C)c1 -5.29%
Cc1ccc(C)c(N2CCN(S(=O)(=O)c3cnc(N)nc3)CC2)c1 -15.7%
Cc1ccc2nc(N3CCN(c4cccc(C)c4C)CC3)c3nncn3c2c1 -9.97%
CC(C)CCn1c(=O)c2sccc2n2c(CCCC(=O)NC3CCC(C)CC3)nnc12 (stereo not given) -17.9%
COc1ccc(CCNC(=O)CCSCc2ccccc2Cl)cc1OC -4.24%
O=C(NCCS(=O)(=O)N1CCN(c2ccc(F)cc2)CC1)C1CC(=O)N(c2ccc(F)cc2)C1 (stereo not given) -5.01%
CC(C)c1ccc2oc(-c3ccc(NC(=O)c4cc5ccccc5o4)cc3)nc2c1 -28.2%
Cc1cc(C)n(-c2nc3cc(Cl)ccc3nc2Nc2ccc(CC(=O)O)cc2)n1 1.82%
COc1ccc2nc(NC(=O)c3nc(SCc4ccccc4F)ncc3Cl)sc2c1 -9.85%
COc1ccccc1CNC(=O)C1CCN(S(=O)(=O)c2ccc3c(ccn3C)c2)CC1 -17.5%
COC(=O)c1c(-c2cccs2)csc1NC(=O)c1ccc(OC)c(OC)c1 1.02%
CCNC(=O)C1CCN(c2nnc(C)c3c(C)n(-c4ccc(OC)cc4)nc23)CC1 -2.31%
Cc1ccc2c(c1)NC(=O)c1cccnc1O2 -15.7%
Cc1ccc(-c2nc(CS(=O)(=O)CC(=O)NCCc3ccccc3)c(C)o2)cc1 -2.68%
COc1ccc(CNC(=O)Cn2nc(N3CCN(c4ccccc4)CC3)ccc2=O)c(OC)c1 4.18%
CC1=C(C(=O)Nc2ccccc2)C(c2ccncc2)n2nc(SCc3ccccc3F)nc2N1 (stereo not given) -6.72%
O=C(Nc1ccc(OCc2cc(=O)n3ccccc3n2)cc1)c1ccccc1Cl 18%
Cc1cccc(OCC(O)Cn2c(=N)n(CCN3CCCCC3)c3ccccc32)c1 (stereo not given) -26.3%
CCn1cc(C(=O)NCc2ccc(C)cc2)c(=O)c2cc(S(=O)(=O)N(C)C3CCCCC3)ccc21 -0.951%
CCc1ccc(CN(Cc2ccco2)C(=O)COc2ccc(Cl)c(C)c2)cc1 -27.9%
CCC(C)NC(=O)CSc1nc2c(sc3ccccc32)c(=O)n1CCc1ccc(OC)c(OC)c1 (stereo not given) -4.56%
O=C(O)CNC(=O)c1ccccc1I 1.47%
CCN1CCN(C(=O)Cn2c(-c3cccs3)cc3ccccc32)CC1 -6.83%
COc1nc(-c2ccccc2)ccc1-c1noc(-c2ccccc2Br)n1 10.2%
COC(=O)c1cccc(NC(=O)c2nsc3ccccc23)c1 -34.1%
COc1ccc(CCNC(=O)c2ccc3c(c2)N(Cc2ccccc2F)C(=O)c2ccccc2S3=O)cc1OC (stereo not given) 6.84%
CCOc1ccccc1CNC(=O)CCc1c(C)nn(-c2ccc(N3CCOCC3)nn2)c1C -28.9%
COc1ccc(N2CCN(S(=O)(=O)CCNC(=O)COc3ccccc3F)CC2)cc1 -21.4%
CCOC(=O)CSc1nc(-c2ccc(Cl)cc2)cc(C(F)(F)F)c1C#N -9.94%
Cc1ccc(C(=O)Oc2c(S(=O)(=O)c3ccccc3)c(C)nn2-c2ccccc2)cc1 -25.9%
Cc1ccc(NC(=O)CCNS(=O)(=O)c2cccc3nonc23)cc1Cl -21.2%
Cc1cn2c(=O)cc(COC(=O)c3cccc(NC(=O)COc4ccccc4C)c3)nc2s1 -17.5%
Cc1ccc(Cc2nc3ccccc3nc2SCC(=O)N2CCCc3ccccc32)cc1 -1.77%
Cc1ccccc1N1C(=O)c2cc(S(N)(=O)=O)c(Cl)cc2NC1C (stereo not given)
Cc1c(-c2nc(-c3ccccc3F)no2)nnn1-c1cc(F)ccc1F -53.7%
CCCNC(=O)C(C)n1nc(C)c2c(C)n(-c3ccccc3)nc2c1=O (stereo not given) -4.92%
Cc1ccc(CNC(=O)CSc2c3c(nc4cc(Cl)ccc24)CCCC3)cc1 0.982%
O=c1oc2cc(O)ccc2cc1-c1nnc(Nc2ccccc2F)s1 95.9%
CC[C@H](NC(C)C)[C@H](O)c1ccc(O)c2[nH]c(=O)ccc12
CCOc1ccccc1NC(=O)Cn1c(=O)n(Cc2ccco2)c(=O)c2ccc(C(=O)NC3CCCC3)cc21 -10.6%
COc1ccc(Cl)cc1NC(=O)Cn1nc(Cc2ccncc2)c2ccccc2c1=O -11.9%
COc1ccccc1NC(=O)N1CCC(CN2CCc3ccccc3C2)CC1 -9.23%
Cc1cc(F)ccc1NC1(c2ccccc2)C(=O)c2ccccc2C1=O -10.5%
Cc1ccc(OC(=O)CSc2nnc(-c3cccs3)o2)cc1C -1.87%
CCn1cc(C(=O)NCCc2ccc(OC)c(OC)c2)c(=O)c2cc(S(=O)(=O)N3CCC(C)CC3)ccc21 -4.04%
CC(C)COC(=O)c1ccc(N)cc1 31.3%
CCOc1ccc(N(CC(=O)Nc2ccccc2CC)S(=O)(=O)c2c(C)[nH]c(=O)[nH]c2=O)cc1 -12.6%
Cc1ccc(NC(=O)c2sc3nc[nH]c(=O)c3c2C)cc1Cl 53.1%
Cc1ccc(NC(=O)Cn2c(=O)oc3ccccc32)cc1C -18.2%
COC(=O)c1c(NC(=O)c2cc(OC)c(OC)c(OC)c2Br)sc2c1CCC(C)C2 (stereo not given) 22.3%
COc1ccc(CNC(=O)CCn2nc(C)c3c(C)n(-c4ccccc4)nc3c2=O)c(OC)c1 11.2%
CNC(=O)Cn1c(=O)c2cccn2c2ccc(F)cc21 7.42%
O=C(CCNS(=O)(=O)c1cccc2nsnc12)NCc1ccccc1 -3.75%
CC(C)CNc1ncnc2c1nnn2C -8.33%
COc1ccc(CNC(=O)c2ccc3nc(CCc4ccccc4)oc3c2)c(OC)c1 -17.6%
COc1ccc(OC)c(C2C(C(=O)N3CCCCC3)=C(C)Nc3nc4ccccc4n32)c1 (stereo not given) -6.08%
CC(C)(C)c1ccc(CN(Cc2ccco2)c2cnc(S(C)(=O)=O)nc2C(=O)Nc2ccc(F)cc2)cc1 -29.9%
Cc1cc(C)c(NC(=O)Cn2c(=O)nc(-c3ccccc3)c3cc(Cl)ccc32)c(C)c1 -10.6%
Cc1cc(=O)n(Cc2cccc(F)c2)c2c1c(C)nn2-c1cccc(F)c1 -3.46%
CCc1cccc(CC)c1-n1nnc2c(sc3nc(C)cc(C)c32)c1=O 6.95%
Cc1ccccc1CN1c2ccccc2-c2nc(SCC(N)=O)ncc2S1(=O)=O -15%
CCc1ccc(-c2nn(CC(=O)Nc3ccccc3C)c3c2cnc2ccc(C)cc23)cc1 -16.1%
Clc1ccc(OCc2nc3ccccc3n2Cc2ccccc2)c(Cl)c1 9.36%
Cc1ccc(C)c(NC(=O)c2nn(C)c3c2CS(=O)(=O)c2ccccc2-3)c1 -12.7%
CC(C)(C)C1CCc2c(sc3nnn(CCOc4ccccc4)c(=O)c23)C1 (stereo not given) 9.39%
COc1cc(/C=C/c2nc(C#N)c(NCCc3ccccc3)o2)cc(OC)c1OC -11.5%
COc1cc(NC(=O)c2nc3ccccc3nc2N2CCCCC2)cc(OC)c1OC 12.7%
Cc1ccc(CNC(=O)c2ccc(-c3nc(CS(=O)c4ccccc4)c(C)o3)cc2)cc1 (stereo not given) -11.8%
Cc1ccc(-c2nn(CC(=O)NC3CCCC3)c3c2cnc2ccccc23)cc1 5.33%
Cc1ccc(C)c(NC(=O)CN2C(=O)c3cccnc3Oc3ccc(C)cc32)c1 -3.67%
COCCn1ccc2c(OCC(=O)Nc3ccccc3F)cccc2c1=O 0%
O=C1N(c2ccccc2)c2ccccc2C1(Cc1ccncc1)Cc1ccncc1
